The results in this text go back to the BET-seq Pho4 binding data (Le et al. 2018).

The list shows a part of the results. These are noisy estimates, calculated here from bound and input reads.

The assay deals with T1, Pho4 (S. cerevisiae) (UniProt P07270).
T1 sequence: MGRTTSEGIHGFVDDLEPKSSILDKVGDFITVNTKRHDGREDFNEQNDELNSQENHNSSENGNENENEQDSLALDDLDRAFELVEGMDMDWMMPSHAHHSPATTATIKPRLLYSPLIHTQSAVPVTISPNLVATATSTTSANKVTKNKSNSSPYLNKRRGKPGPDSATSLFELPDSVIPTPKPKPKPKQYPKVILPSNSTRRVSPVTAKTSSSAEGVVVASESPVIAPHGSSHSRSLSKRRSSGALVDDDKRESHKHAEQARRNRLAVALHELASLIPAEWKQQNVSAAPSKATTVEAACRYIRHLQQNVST
In words: relative binding free energy (BET-seq); higher = weaker binding. Conditions: reference: library average.
As to GGGTTCACGTGGATTG, the “relative binding free energy” value was 0.32 kcal/mol.
As for CTCATCACGTGGGTGG, the figure is 0.07 kcal/mol.
On to TGTAACACGTGTAGTA, for which the “relative binding free energy” value was found to be 0.11 kcal/mol.
GTGATCACGTGCGAGG: the “relative binding free energy” value was -0.06 kcal/mol.
Consider TTTCACACGTGGGGGA, for which the “relative binding free energy” value was -0.07 kcal/mol.
As to CTGTTCACGTGAGTTG, the “relative binding free energy” value came out at 0.34 kcal/mol.
For CGGGACACGTGGTCGT, the “relative binding free energy” value was -0.04 kcal/mol.
Next, AGTTGCACGTGAGGTT: 0.15 kcal/mol.
For AATGACACGTGAAATG, the “relative binding free energy” value was 0.33 kcal/mol.
TGTTGCACGTGACTAG: the “relative binding free energy” value was -0.06 kcal/mol.
As to GTTTTCACGTGGATTT, the “relative binding free energy” value came out at 0.28 kcal/mol.
For TAATTCACGTGTGAGT, the “relative binding free energy” value is 0.32 kcal/mol.
CTTGGCACGTGAGTGC: the “relative binding free energy” value turned out to be 0.26 kcal/mol.
Next, ATCTACACGTGGTTTT: -0.06 kcal/mol; TTGTGCACGTGCCAGG: -0.12 kcal/mol.
As for GTTAGCACGTGTAGGT, the figure is 0.02 kcal/mol.
In the case of TGTCTCACGTGTTTCA, the “relative binding free energy” value came to 0.25 kcal/mol.
Turning to ATTTGCACGTGGCGAT, the “relative binding free energy” value was -0.08 kcal/mol.
Next, GGGCACACGTGTTGTT: 0.22 kcal/mol; GATTTCACGTGTGGAC: 0.44 kcal/mol.
As to CGTTTCACGTGCGGCG, the “relative binding free energy” value stood at 0.31 kcal/mol.
Regarding TGGTGCACGTGCTGTA, the “relative binding free energy” value is -0.16 kcal/mol.
Turning to TGGTACACGTGGCGCT, the “relative binding free energy” value is 0.11 kcal/mol.
Regarding GTAATCACGTGCTGGA, the “relative binding free energy” value amounted to 0.15 kcal/mol.
Next, ATGTACACGTGACGGT: 0.13 kcal/mol; GTACTCACGTGTAATG: 0.24 kcal/mol.
For CTGAACACGTGGGATG, the “relative binding free energy” value was -0.05 kcal/mol.
Next, GAGTACACGTGTGTTA: 0.13 kcal/mol; AGGGTCACGTGTCCGG: 0.04 kcal/mol; TTTGGCACGTGGGACA: -0.27 kcal/mol.
In the case of GATGTCACGTGGCTTG, the “relative binding free energy” value is 0.14 kcal/mol.
Turning to GTTATCACGTGGCGCT, the “relative binding free energy” value came out at 0.15 kcal/mol.
On to AATGTCACGTGTGTGC, for which the “relative binding free energy” value worked out at 0.06 kcal/mol.
Regarding GTCTGCACGTGGTCTG, the “relative binding free energy” value was -0.07 kcal/mol.
For the sequence TATATCACGTGTAGAG, the “relative binding free energy” value was found to be 0.15 kcal/mol.
Consider TTTAACACGTGTAGCT, for which the “relative binding free energy” value was found to be 0.1 kcal/mol.
As for ATACGCACGTGTTTGT, the figure is -0.17 kcal/mol.
Next, AGCGTCACGTGTATTG: 0.09 kcal/mol; ATTCACACGTGGCGGT: 0.04 kcal/mol; ATTGTCACGTGTAGGT: 0.14 kcal/mol.
Take GTGGGCACGTGTTCGT: the “relative binding free energy” value turned out to be 0.04 kcal/mol.
CATTGCACGTGGGTTA: the “relative binding free energy” value was -0.13 kcal/mol.
Regarding ATAATCACGTGGATGA, the “relative binding free energy” value turned out to be 0.13 kcal/mol.
As to TGTGACACGTGATGCT, the “relative binding free energy” value was -0.05 kcal/mol.
Turning to TTTTCCACGTGGGTGC, the “relative binding free energy” value is -0.06 kcal/mol.
As for TTCGGCACGTGAAGGC, the figure is 0.18 kcal/mol; as for GGGGACACGTGGAAGG, 0.08 kcal/mol.
Next, TATCACACGTGATTTT: 0.31 kcal/mol; GATTTCACGTGGGTGG: 0.38 kcal/mol.
Next, ACGTTCACGTGGTAGG: 0.07 kcal/mol.
For the sequence TGAATCACGTGTTACT, the “relative binding free energy” value was 0.28 kcal/mol.
As for TAAGTCACGTGGGAAG, the “relative binding free energy” value was -0.01 kcal/mol.
Consider CGTTGCACGTGGGGGA, for which the “relative binding free energy” value was -0.2 kcal/mol.
As for TTGTTCACGTGTCTGA, the “relative binding free energy” value worked out at 0.25 kcal/mol.
Regarding TTTGGCACGTGAACGT, the “relative binding free energy” value was 0.05 kcal/mol.
As for TGTTTCACGTGCGTTT, the figure is 0.38 kcal/mol; as for ATCAGCACGTGTTGGG, -0.07 kcal/mol; as for TTTGGCACGTGCATTG, -0.29 kcal/mol.
For the sequence TATTACACGTGGACGG, the “relative binding free energy” value worked out at 0.11 kcal/mol.
Turning to GGTTTCACGTGGGTCG, the “relative binding free energy” value is 0.29 kcal/mol.
Consider TGGATCACGTGATTTC, for which the “relative binding free energy” value is 0.46 kcal/mol.
Turning to TCGTACACGTGTGTAG, the “relative binding free energy” value is 0.06 kcal/mol.
Next, GGCTTCACGTGAAGTT: 0.32 kcal/mol.
For GTGGTCACGTGGCTCG, the “relative binding free energy” value is 0.09 kcal/mol.
As to GTAAACACGTGGGAGG, the “relative binding free energy” value was 0.09 kcal/mol.
GAGGGCACGTGAACTG: the “relative binding free energy” value is 0.27 kcal/mol.
As for CGATTCACGTGTGGGG, the figure is 0.39 kcal/mol; as for ATTATCACGTGGTTTC, 0.15 kcal/mol; as for GTGTTCACGTGGCGCT, 0.15 kcal/mol.
With AGGCGCACGTGTAGGT, the “relative binding free energy” value was found to be 0.01 kcal/mol.
Next, CGTGTCACGTGTGTGT: 0.09 kcal/mol; GGGAGCACGTGATGTA: 0.12 kcal/mol.
Consider GGGGTCACGTGGATCA, for which the “relative binding free energy” value was 0.16 kcal/mol.
Consider GGATCCACGTGTGGGA, for which the “relative binding free energy” value was determined as 0.2 kcal/mol.
In the case of ATAAGCACGTGGAGGT, the “relative binding free energy” value is -0.07 kcal/mol.
Take TAGCGCACGTGTATGT: the “relative binding free energy” value is -0.09 kcal/mol.
Turning to GGGTACACGTGTGGCC, the “relative binding free energy” value came out at 0.13 kcal/mol.
Consider ATTGTCACGTGTGGTA, for which the “relative binding free energy” value stood at 0.13 kcal/mol.
As to TAGGGCACGTGGATAG, the “relative binding free energy” value is -0.1 kcal/mol.
As for TGTTGCACGTGATTGC, the figure is 0.13 kcal/mol.
Consider TGTTACACGTGGACTT, for which the “relative binding free energy” value stood at 0.06 kcal/mol.
In the case of TGGCGCACGTGTAATA, the “relative binding free energy” value was found to be 0.08 kcal/mol.
As for TTGGTCACGTGTTTCG, the figure is 0.04 kcal/mol; as for GGCGTCACGTGTGAAT, 0.16 kcal/mol.
For the sequence TTGTGCACGTGTGTGG, the “relative binding free energy” value was -0.01 kcal/mol.
As for AATGGCACGTGTTAGG, the “relative binding free energy” value is -0.11 kcal/mol.
CTGGTCACGTGAGGTA: the “relative binding free energy” value stood at 0.2 kcal/mol.
AGTATCACGTGTATTT: the “relative binding free energy” value is 0.13 kcal/mol.
Turning to CGGCTCACGTGGTGGT, the “relative binding free energy” value stood at 0.13 kcal/mol.
TGGGGCACGTGTAATC: the “relative binding free energy” value was 0.08 kcal/mol.
As to TGATCCACGTGGTGTA, the “relative binding free energy” value is -0.13 kcal/mol.
On to ACGGGCACGTGGAAGG, for which the “relative binding free energy” value is -0.09 kcal/mol.
Take ATTCGCACGTGTGAGG: the “relative binding free energy” value is 0.06 kcal/mol.
TGTTGCACGTGGCTAA: the “relative binding free energy” value is -0.1 kcal/mol.
As for TCTGGCACGTGGAGGC, the figure is 0.09 kcal/mol.
In the case of ATTTCCACGTGTATGG, the “relative binding free energy” value was 0.03 kcal/mol.
Regarding TGGGTCACGTGAATTA, the “relative binding free energy” value worked out at 0.23 kcal/mol.
As for TTTAGCACGTGTGGAT, the “relative binding free energy” value turned out to be 0.06 kcal/mol.
Regarding GGTTGCACGTGGCCAG, the “relative binding free energy” value was -0.05 kcal/mol.
In the case of GTGTTCACGTGAGTGA, the “relative binding free energy” value was found to be 0.47 kcal/mol.
TCGTTCACGTGTTTCA: the “relative binding free energy” value came out at 0.32 kcal/mol.
Next, ACCGTCACGTGTGGGT: 0.15 kcal/mol.
Take AGGGGCACGTGGTTTC: the “relative binding free energy” value was -0.2 kcal/mol.
Regarding CTTCTCACGTGGGGGG, the “relative binding free energy” value is 0.08 kcal/mol.
For the sequence AGTTGCACGTGTTTTG, the “relative binding free energy” value amounted to 0.03 kcal/mol.
As for AATTACACGTGGTGTT, the “relative binding free energy” value is -0.13 kcal/mol.
In the case of TCAGGCACGTGGCGTT, the “relative binding free energy” value was -0.2 kcal/mol.
Regarding TTAGTCACGTGGACGG, the “relative binding free energy” value worked out at 0.11 kcal/mol.
With GTGTGCACGTGATGTG, the “relative binding free energy” value worked out at 0.17 kcal/mol.
As to TGGTACACGTGTAATT, the “relative binding free energy” value is 0.04 kcal/mol.
As to GTTAACACGTGGTAAA, the “relative binding free energy” value was determined as 0.15 kcal/mol.
As for TCTTTCACGTGATATA, the figure is 0.43 kcal/mol; as for TGTAGCACGTGCTGTG, -0.17 kcal/mol.
Take GTTTGCACGTGCGTCG: the “relative binding free energy” value is -0.11 kcal/mol.
With TTGCGCACGTGATGGC, the “relative binding free energy” value is -0.01 kcal/mol.
